The record followed here is patent publication US20120052122A1, “Treatment Of Chronic Obstructive Pulmonary Disease With Phosphodiesterase-4 Inhibitor” (Nycomed GmbH, priority 2010, published 2012).

The experiment concerns patients with moderate-to-severe COPD. Nature of the experiment: Tiotropium plus roflumilast (M2-128) trial, 24 weeks. The experiment is classed as in vivo. As to conditions: Tiotropium + roflumilast vs Tiotropium + placebo.

Consider `O=C(Nc1c(Cl)cncc1Cl)c1ccc(OC(F)F)c(OCC2CC2)c1` [Roflumilast, N-(3,5-dichloropyridin-4-yl)-3-cyclopropylmethoxy-4-difluoromethoxy-benzamide], for which the “Change in postbronchodillator FEV1, difference” value was determined as 81 mL; the “Change in prebronchodillator FEV1, difference” value turned out to be 80 mL; the “TDI focal score, difference” value is listed as 0.4.
